Consider 1 molecule from patent US20180155450A1 (Sanofi, published 2018).

This assay concerns the target T1, recombinant human IL4 (human, UniProt P05112 25-153).
T1 construct: also called Antigen1
T1 sequence (looked up): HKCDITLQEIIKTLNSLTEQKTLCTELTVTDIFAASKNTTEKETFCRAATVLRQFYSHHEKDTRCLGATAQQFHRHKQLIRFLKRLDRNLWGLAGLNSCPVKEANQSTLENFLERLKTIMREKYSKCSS
The assay can be described thus: binding assay not named (Example 1).

B1: CODH-Ig anti-IL13 VH-(G4S)2-anti-IL4 VH-CH1-Fc / anti-IL4 VL-(G4S)2-anti-IL13 VL-CL (bispecific antibody, human IgG1, kappa)
heavy: EVQLKESGPGLVAPGGSLSITCTVSGFSLTDSSINWVRQPPGKGLEWLGMIWGDGRIDYADALKSRLSISKDSSKSQVFLEMTSLRTDDTATYYCARDGYFPYAMDFWGQGTSVTVSSGGGGSGGGGSQVQLQQSGPELVKPGASVKISCKASGYSFTSYWIHWIKQRPGQGLEWIGMIDPSDGETRLNQRFQGRATLTVDESTSTAYMQLRSPTSEDSAVYYCTRLKEYGNYDSFYFDVWGAGTLVTVSS[letters of human IgG1 constant region not shown]
light: DIQMTQSPASLSVSVGDTITLTCHASQNIDVWLSWFQQKPGNIPKLLIYKASNLHTGVPSRFSGSGSGTGFTLTISSLQPEDIATYYCQQAHSYPFTFGGGTKLEIKGGGGSGGGGSDIVLTQSPASLAVSLGQRATISCRASESVDSYGQSYMHWYQQKAGQPPKLLIYLASNLESGVPARFSGSGSRTDFTLTIDPVQAEDAATYYCQQNAEDSRTFGGGTKLEIKRTVAAPSVFIFPPSDEQLKSGTASVVCLLNNFYPREAKVQWKVDNALQSGNSQESVTEQDSKDSTYSLSSTLTLSKADYEKHKVYACEVTHQGLSSPVTKSFNRGEC
notes: also called IL13(G4S2)IL4CH1-Fc + IL4(G4S2)IL13CL
Turning to B1, the binding result is recorded as “no binding”.
